Data published in article PMC11655642.
Results are given in words; binding and its absence hold for the method and conditions named. In cells and extracts the contact can be indirect. Some results given as binding are weak or reduced against the parent protein; the word gives no strength. For part of these data: Sequences can lack the tags named with a protein.

Protein sequences, listed by entry. Tags and fused reporters are not part of them.
UniProt P47806: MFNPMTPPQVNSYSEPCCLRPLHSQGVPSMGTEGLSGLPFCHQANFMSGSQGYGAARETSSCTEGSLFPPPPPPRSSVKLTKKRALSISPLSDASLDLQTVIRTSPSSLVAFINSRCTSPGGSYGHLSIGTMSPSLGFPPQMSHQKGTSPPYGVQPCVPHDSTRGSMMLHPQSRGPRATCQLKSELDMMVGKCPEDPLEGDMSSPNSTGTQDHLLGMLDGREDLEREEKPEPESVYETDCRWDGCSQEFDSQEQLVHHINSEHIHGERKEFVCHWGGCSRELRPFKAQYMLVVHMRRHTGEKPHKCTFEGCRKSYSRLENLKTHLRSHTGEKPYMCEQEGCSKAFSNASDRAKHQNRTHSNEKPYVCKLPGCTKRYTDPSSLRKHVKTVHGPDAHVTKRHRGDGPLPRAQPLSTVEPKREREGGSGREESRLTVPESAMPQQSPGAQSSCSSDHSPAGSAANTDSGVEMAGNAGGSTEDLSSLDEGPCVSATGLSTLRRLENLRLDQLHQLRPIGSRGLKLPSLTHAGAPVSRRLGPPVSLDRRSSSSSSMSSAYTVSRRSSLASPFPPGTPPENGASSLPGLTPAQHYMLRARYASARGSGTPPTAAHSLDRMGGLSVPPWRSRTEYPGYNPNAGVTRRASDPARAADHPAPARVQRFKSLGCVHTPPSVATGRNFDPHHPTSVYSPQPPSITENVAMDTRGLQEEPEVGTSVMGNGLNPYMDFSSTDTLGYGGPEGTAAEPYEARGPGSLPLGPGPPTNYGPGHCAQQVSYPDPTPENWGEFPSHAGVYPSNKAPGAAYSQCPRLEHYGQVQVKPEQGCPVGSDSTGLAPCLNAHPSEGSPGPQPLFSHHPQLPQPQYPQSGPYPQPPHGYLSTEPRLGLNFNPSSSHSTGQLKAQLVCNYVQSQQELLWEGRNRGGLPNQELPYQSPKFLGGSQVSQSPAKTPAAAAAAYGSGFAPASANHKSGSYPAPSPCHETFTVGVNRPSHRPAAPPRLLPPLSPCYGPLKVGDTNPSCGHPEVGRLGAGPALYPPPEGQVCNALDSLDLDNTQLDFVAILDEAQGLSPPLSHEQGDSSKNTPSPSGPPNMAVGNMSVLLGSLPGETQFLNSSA
UniProt Q9CUN6: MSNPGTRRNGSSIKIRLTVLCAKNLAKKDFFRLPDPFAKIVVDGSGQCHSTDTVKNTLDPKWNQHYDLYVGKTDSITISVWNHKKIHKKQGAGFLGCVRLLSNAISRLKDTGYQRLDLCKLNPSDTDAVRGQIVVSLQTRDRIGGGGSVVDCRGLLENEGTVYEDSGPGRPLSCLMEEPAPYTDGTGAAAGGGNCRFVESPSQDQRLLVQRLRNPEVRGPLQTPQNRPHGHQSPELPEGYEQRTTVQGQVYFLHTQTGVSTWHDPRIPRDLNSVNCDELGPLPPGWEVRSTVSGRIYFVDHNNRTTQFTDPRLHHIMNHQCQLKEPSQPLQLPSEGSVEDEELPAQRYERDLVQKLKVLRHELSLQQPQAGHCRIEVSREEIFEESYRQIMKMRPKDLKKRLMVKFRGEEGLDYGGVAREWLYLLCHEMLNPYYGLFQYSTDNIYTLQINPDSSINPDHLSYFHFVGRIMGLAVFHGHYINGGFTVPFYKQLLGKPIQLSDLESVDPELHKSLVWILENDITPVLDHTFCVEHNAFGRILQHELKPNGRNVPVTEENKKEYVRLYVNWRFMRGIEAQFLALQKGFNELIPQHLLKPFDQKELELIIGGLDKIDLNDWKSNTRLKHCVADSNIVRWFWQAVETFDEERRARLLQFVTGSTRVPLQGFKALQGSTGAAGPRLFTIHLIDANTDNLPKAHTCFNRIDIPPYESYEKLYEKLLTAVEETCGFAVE
UniProt Q9HAU4: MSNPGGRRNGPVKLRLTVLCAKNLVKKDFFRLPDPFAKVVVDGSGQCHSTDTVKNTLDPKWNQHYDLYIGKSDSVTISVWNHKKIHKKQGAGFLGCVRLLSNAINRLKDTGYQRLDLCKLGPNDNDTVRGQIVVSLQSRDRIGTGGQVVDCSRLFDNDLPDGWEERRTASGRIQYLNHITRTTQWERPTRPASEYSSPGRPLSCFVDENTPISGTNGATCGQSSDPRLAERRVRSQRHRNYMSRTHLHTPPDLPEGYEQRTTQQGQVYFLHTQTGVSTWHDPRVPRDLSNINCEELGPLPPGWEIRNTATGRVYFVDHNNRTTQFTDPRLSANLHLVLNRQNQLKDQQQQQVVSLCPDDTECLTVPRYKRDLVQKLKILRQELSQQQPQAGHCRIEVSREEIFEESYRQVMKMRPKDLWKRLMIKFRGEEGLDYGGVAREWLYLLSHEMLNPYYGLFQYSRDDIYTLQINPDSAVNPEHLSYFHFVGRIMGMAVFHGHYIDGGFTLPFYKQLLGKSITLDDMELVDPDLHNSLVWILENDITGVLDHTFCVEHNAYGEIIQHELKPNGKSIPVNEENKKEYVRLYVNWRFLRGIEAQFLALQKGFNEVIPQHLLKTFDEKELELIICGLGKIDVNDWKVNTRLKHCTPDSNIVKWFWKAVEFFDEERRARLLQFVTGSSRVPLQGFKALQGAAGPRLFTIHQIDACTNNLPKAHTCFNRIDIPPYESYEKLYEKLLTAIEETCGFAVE
UniProt Q9HCE7: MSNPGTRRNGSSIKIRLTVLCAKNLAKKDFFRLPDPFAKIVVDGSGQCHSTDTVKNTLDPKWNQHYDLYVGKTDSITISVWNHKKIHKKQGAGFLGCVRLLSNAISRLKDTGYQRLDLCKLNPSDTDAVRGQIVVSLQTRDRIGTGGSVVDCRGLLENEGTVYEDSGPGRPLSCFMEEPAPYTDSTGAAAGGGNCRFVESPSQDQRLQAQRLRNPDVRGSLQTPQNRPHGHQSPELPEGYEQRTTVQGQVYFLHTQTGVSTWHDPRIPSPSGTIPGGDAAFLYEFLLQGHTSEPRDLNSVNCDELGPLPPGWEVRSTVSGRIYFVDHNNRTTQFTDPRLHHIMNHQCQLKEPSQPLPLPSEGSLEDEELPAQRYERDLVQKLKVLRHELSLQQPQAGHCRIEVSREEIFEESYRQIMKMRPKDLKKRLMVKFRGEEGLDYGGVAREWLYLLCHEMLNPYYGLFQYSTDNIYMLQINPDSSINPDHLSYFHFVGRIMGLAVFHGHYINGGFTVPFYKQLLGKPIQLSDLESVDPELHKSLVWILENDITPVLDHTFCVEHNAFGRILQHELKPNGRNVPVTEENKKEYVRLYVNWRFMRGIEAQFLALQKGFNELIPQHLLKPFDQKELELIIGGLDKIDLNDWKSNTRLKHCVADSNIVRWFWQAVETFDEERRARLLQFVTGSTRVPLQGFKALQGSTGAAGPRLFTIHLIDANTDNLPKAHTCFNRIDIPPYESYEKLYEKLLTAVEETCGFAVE

Legend:
[1] = biological target: endogenous GLI1 (NIH-3T3 cells) (mouse (endogenous in NIH-3T3)) (UniProt P47806); assay: proximity ligation; NIH-3T3 cells, endogenous proteins, fixed in 4% paraformaldehyde, permeabilised; control without primary antibody
[2] = biological target: T1, FLAG-GLI1 (424-1106), in vitro translated (UniProt P08151); assay: co-IP; in vitro translated proteins (rabbit reticulocyte lysate) incubated together 2 h at 4 °C, precipitated with anti-FLAG agarose beads; control beads saturated with FLAG peptide; anti-MYC blot
T1 sequence: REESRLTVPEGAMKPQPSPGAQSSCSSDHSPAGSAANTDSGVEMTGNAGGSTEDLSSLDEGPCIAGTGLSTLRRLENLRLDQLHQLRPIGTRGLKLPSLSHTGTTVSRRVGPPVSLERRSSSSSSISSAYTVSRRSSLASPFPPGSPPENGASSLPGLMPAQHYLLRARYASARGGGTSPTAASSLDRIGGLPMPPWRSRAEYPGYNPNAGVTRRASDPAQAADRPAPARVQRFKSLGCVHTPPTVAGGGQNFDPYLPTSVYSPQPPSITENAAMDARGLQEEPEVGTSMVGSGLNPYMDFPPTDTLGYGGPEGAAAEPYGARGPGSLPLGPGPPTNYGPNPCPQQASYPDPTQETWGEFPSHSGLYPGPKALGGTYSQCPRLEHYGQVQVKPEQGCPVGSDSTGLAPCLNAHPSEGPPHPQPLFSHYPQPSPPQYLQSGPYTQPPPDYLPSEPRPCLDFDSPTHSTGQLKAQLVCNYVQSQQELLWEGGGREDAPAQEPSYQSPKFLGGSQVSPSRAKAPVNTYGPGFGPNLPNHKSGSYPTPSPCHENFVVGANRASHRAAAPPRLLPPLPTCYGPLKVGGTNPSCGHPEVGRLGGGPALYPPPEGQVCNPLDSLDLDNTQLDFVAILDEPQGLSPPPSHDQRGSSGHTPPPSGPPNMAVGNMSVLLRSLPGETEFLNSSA

[3] = biological target: FLAG-GLI1 (1-413), in vitro translated (UniProt P08151); assay: as above
[4] = biological target: T2, FLAG-GLI1 (424-1106), expressed in HEK-293T (plasmid pCDNA-GLI1(424-1106)-3xFLAG) (UniProt P08151); assay: co-IP; HEK-293T cells co-transfected, lysed 24 h later in Triton X-100 buffer; FLAG-GLI1 forms precipitated with anti-FLAG agarose beads, 2 h at 4 °C; control beads saturated with FLAG peptide; anti-MYC blot
T2 sequence: T1 sequence

[5] = biological target: FLAG-GLI1 (1-413), expressed in HEK-293T (plasmid pCDNA-GLI1(1-413)-3xFLAG) (UniProt P08151); assay: as above
[6] = biological target: FLAG-GLI1 (full length GLI1, plasmid pCDNA-GLI1-3xFLAG) (UniProt P08151); assay: as above
[7] = biological target: FLAG-GLI1 (full length GLI1, plasmid pCDNA-GLI1-3xFLAG) (UniProt P08151); assay: proximity ligation; HEK-293T cells transfected with FLAG-GLI1, fixed in 4% paraformaldehyde, permeabilised; primary antibodies anti-FLAG, anti-GLI1, anti-SMURF1 or anti-SMURF2; control without primary antibody
[8] = biological target: endogenous GLI1 (medulloblastoma cells) (human (endogenous in DAOY, ONS-76)) (UniProt P08151); assay: co-IP; endogenous proteins in DAOY and ONS-76 lysates; precipitated with anti-GLI1 (H-300) antibody and Protein A agarose; control IgG; anti-SMURF1 and anti-SMURF2 blots

## endogenous SMURF1 (NIH-3T3 cells) (from UniProt Q9CUN6 1-731) (enzyme)
[1]
  binding: binds

## MYC-SMURF2, in vitro translated (plasmid pRK1-MYC-SMURF2) (from UniProt Q9HAU4 1-748) (enzyme)
[2]
  binding: binds
[3]
  binding: no binding

## MYC-SMURF1 (plasmid pRK1-MYC-SMURF1) (from UniProt Q9HCE7 1-757) (enzyme)
[4]
  binding: binds
[5]
  binding: no binding
[6]
  binding: binds

## MYC-SMURF1, in vitro translated (plasmid pRK1-MYC-SMURF1) (from UniProt Q9HCE7 1-757) (enzyme)
[2]
  binding: binds
[3]
  binding: no binding

## endogenous SMURF2 (human cells) (from UniProt Q9HAU4 1-748) (enzyme)
[7]
  binding: binds
[8]
  binding: binds

## endogenous SMURF1 (human cells) (from UniProt Q9HCE7 1-757) (enzyme)
[7]
  binding: binds
[8]
  binding: binds

## MYC-SMURF2 (plasmid pRK1-MYC-SMURF2) (from UniProt Q9HAU4 1-748) (enzyme)
[4]
  binding: binds
[5]
  binding: no binding
[6]
  binding: binds
